# Among all 300,000 compounds or so, about 1,200 (0.4%) were called active. The inconclusive results got no clear call from the source; some entries with a clear call stand among them for comparison. The call rests on the fitted dose curve; in most records, active means well fitted inhibition curve with a large enough effect; inconclusive means small, poorly fitted or top-dose-only effect, or another doubt; inactive means no such curve, though single readings can be large or run the other way. A potency beside an inconclusive call is a rough fit, not a confirmed value.
# Target: Lysosomal alpha-glucosidase (Homo sapiens) (UniProt P10253)
# Assay: qHTS Assay for Inhibitors and Activators of Human alpha-Glucosidase Cleavage of Glycogen;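 on activity change, negative = inhibition: 0% = full enzyme reaction and -100% = no-enzyme basal signal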
# Conditions: recombinant GAA, glycogen substrate, Amplex Red glucose oxidase fluorescence; activity change, negative = inhibition: at 76.4 µM (top of the series) unless noted
# Description: NIH Chemical Genomics Center [NCGC] NIH Molecular Libraries Probe Production Centers Network [MLPCN] MLPCN Grant: R03 MH084841-01 Assay Submitter (PI): Wei Zheng NCGC Assay Overview: Alpha-glucosidase is responsible for the hydrolysis of terminal, non-reducing 1,4-linked alpha-D-glucose residues, which releases alpha-D-glucose. It is a lysosomal hydrolase that is required for the degradation of a small percentage (1-3%) of cellular glycogen in humans. Deficiency of this enzyme results in glycogen-storage disease type II (GSDII), also referred to as Pompe disease, an autosomal recessive disorder. Structurally normal glycogen is accumulated in the lysosomes and cytoplasm in affected patients, primarily in muscle tissues. Excessive glycogen storage within lysosomes may interrupt normal functioning of other organelles and leads to cellular injury. In turn, this leads to enlargement and dysfunction of the entire organ involved (eg: cardiomyopathy and muscle weakness). It has been reported that the improper folding and trafficking of alpha-glucosidase resulting from genetic mutations may account for a significant number of Pompe patients. […] We optimized this alpha-glucosidase assay in 1536-well plate format for identification of novel small molecule inhibitors or activators with structures other than the sugar analogs in order to develop new pharmacological chaperones. Previous assays of alpha-Glucosidase have utilized a non-natural fluorescent substrate to probe enzyme activity. The present assay measures enzyme activity on glycogen using a coupled-assay system to glucose oxidase.
# NCGC Assay Protocol Summary: This is an enzyme assay using glycogen from bovine liver (Sigma catalog #: G0885) as the substrate and recombinant human alpha-glucosidase as the enzyme preparation. Upon hydrolysis of the substrate, the glucose product can be detected using the Amplex Red Glucose Oxidase Assay Kit (Invitrogen catalog #: A22189). The product of this reaction can be read with a fluorescence plate reader with an excitation at 573 nm and an emission at 610 nm. Data were normalized to the controls for basal activity (without enzyme) and 100% activity (with enzyme). The AC50 values were determined from concentration-response data modeled with the standard Hill equation. Assay buffer for enzyme reaction: 50 mM citric acid (titrated with potassium phosphate to pH 5.0), 0.01% Tween-20 (pH 5.0 is an optimal condition for this enzyme assay) Assay buffer for Amplex Red reaction: Tris-HCl, pH 7.5 1536-well assay protocol for the alpha-glucosidase assay: (1) Add 2 ul/well alpha-glucosidase enzyme solution (4 nM final) (2) Add 23 nL compounds in DMSO solution. The final titration was 0.7 nM to 77 uM. (3) Add 1 ul of glycogen substrate solution (30 ug) (4) Incubate at 37 C for 40 min (5) Add 2 ul tris-HCl buffer with Amplex Red reagents (6) Incubate 45 min at room temperature. (7) Detect the assay plate in a ViewLux plate reader (PerkinElmer) with Ex=573 nm and Em=610nm. Keywords: Alpha-glucosidase, Pompe Disease, pharmacological chaperone, chaperone therapy, high throughput screening, alpha-glucosidase inhibitor, MLSMR, MLSCN, NIH Roadmap, qHTS and NCGC
# Potency means the concentration at half of the fitted maximal effect.
Structure (SMILES),Potency,"activity change, negative = inhibition"
CC/C(=N\Nc1cccc2ccccc12)c1c(O)[nH]c(=O)[nH]c1=O,"inconclusive: 10 µM [inhibitor, single point]",
COC(=O)COc1ccc(C(c2c(C)[nH][nH]c2=O)c2c(C)[nH][nH]c2=O)cc1,"inconclusive: 35.5 µM [inhibitor, single point]",
CN(C)C(=O)Oc1ccc(-c2cn3cc(Cl)ccc3n2)cc1,,inactive: 14%
Cc1ccc(N2C(=O)NC(=O)/C(=C/C=C/c3ccco3)C2=O)cc1,"inconclusive: 7.94 µM [inhibitor, partial curve]",
Cn1c(=O)c2c(nc(N/N=C/c3c(O)n(C4CCCCC4)c(=S)[nH]c3=O)n2C)n(C)c1=O,"inconclusive: 25.1 µM [inhibitor, partial curve]",
COc1cc(CNC(=O)CCCC/C=C\C(C)C)ccc1O,"inconclusive: 14.1 µM [inhibitor, partial curve]",
O=C(NCC(c1cccnc1)N1CCOCC1)Oc1ccccc1 (stereo not drawn),,inactive: -2.79%
C=CCNC(=S)Nc1ccc(OC(=O)Nc2ccc(Cl)c(Cl)c2)cc1,"inconclusive: 10 µM [inhibitor, partial curve]",
COc1cc2c(cc1OC)-c1c(OC)c(OC)cc3c1[C@H](C2)N(C)CC3,,inactive: 0.565%
O=C1C(=O)c2ccccc2-c2ccccc21,,inactive: 2.42%
COc1ccc2c(c1O)[C@]13CCN(C)[C@H](C2)[C@@H]1CCC(=O)C3,"inconclusive: 22.4 µM [inhibitor, partial curve]",
Cc1nc2c(=O)n(C)c(=O)nc-2n(C)n1,,inactive: 8.24%
Oc1ccc(CC2(N3CCCC3)CCCCC2)cc1,,inconclusive: 9.06% [activator] [at 76.3 µM]
CCN1CCN(c2ccc(N)cc2C)CC1,"inconclusive: 10 µM [inhibitor, full curve]",
O=C(C1CC(c2ccc(Cl)c(Cl)c2)=NO1)N1CCC2(CC1)OCCO2 (stereo not drawn),"inconclusive: 39.8 µM [inhibitor, single point]",
O=C1C2CCN(CC2)C1Cc1ccccc1O (stereo not drawn),,inactive: 8.34%
O=C(O[C@@H]1Cc2c(O)cc(O)cc2O[C@@H]1c1cc(O)c(O)c(O)c1)c1cc(O)c(O)c(O)c1,"inconclusive: 3.98 µM [inhibitor, full curve]",
N#Cc1c(/N=C/c2ccc(O)cc2O)sc2c1C1CCN2CC1,"inconclusive: 39.8 µM [inhibitor, partial curve]",
COc1ccc(CNC(=O)CSCc2cnn(-c3ccccc3)c2-n2cccc2)cc1OC,"inconclusive: 50.1 µM [inhibitor, single point]",
O=c1[nH]c(=S)n(C2CC2)c(O)c1/C=N/Nc1cccc2ccccc12,"inconclusive: 28 µM [inhibitor, partial curve]",
CCOC(=O)c1c(C)n(Cc2ccco2)c2c1cc(O)c1ccccc12,"inconclusive: 22.4 µM [inhibitor, partial curve]",
Cc1ccc2c(c1Cl)NC(C(=O)O)C1CC(Sc3ccccc3[N+](=O)[O-])C(Cl)C21 (stereo not drawn),"inconclusive: 22.4 µM [inhibitor, partial curve]",

Structure (SMILES),Potency,"activity change, negative = inhibition"
CC(C)CN(C(=O)CN1CC=C(c2ccccc2)CC1)c1c(N)n(CC(C)C)c(=O)[nH]c1=O,"inconclusive: 39.8 µM [activator, partial curve]",
CN1C(=O)C(=Cc2ccccc2OCc2ccc(C(=O)O)cc2)C(=O)N(C)C1=O,,inactive: -5.72%
CCn1ccnc1CN1CCCC(C(=O)c2cc(F)ccc2OC)C1 (stereo not drawn),"inconclusive: 6.26 µM [inhibitor, single point]",
CCCCC/C=C\C/C=C\C/C=C\C/C=C\CCCC(=O)Nc1ccc(O)cc1,active: 31.6 µM,
O=c1c2ccccc2nc(/C=C/c2ccc(O)c(O)c2)n1-c1ccccc1,"inconclusive: 8.91 µM [inhibitor, single point]",
O=C(O)c1cccc2c1NC(C(=O)O)C1CC(Sc3ccccc3[N+](=O)[O-])C(Cl)C21 (stereo not drawn),"inconclusive: 10 µM [inhibitor, partial curve]",
O=c1[nH]c(=S)n(Cc2ccc(F)cc2)c(O)c1C=NCC1CCCO1 (stereo not drawn),"inconclusive: 49.7 µM [inhibitor, partial curve, poor fit]",
CCOC(=O)/C(=N\Nc1ccccc1)N1CC1,"inconclusive: 11.1 µM [inhibitor, partial curve]",
NS(=O)(=O)c1ccc(-c2ccc(C=C3C(=O)NC(=S)NC3=O)o2)cc1,"inconclusive: 50.1 µM [inhibitor, single point]",
O=C1CC(c2cccnc2)=NN1c1ccccc1,,inactive: -18.6%
OCCN1CCN(CCCN2c3ccccc3Sc3ccc(C(F)(F)F)cc32)CC1,"inconclusive: 39.5 µM [inhibitor, single point]",
COc1ccc(OC(=O)Nc2ccccc2)cc1,"inconclusive: 11.2 µM [inhibitor, partial curve]",
Cc1c(N=Nc2c(O)[nH]c(=O)[nH]c2=O)c(=O)n(-c2ccccc2)n1C,"inconclusive: 31.6 µM [inhibitor, partial curve]",
CCOC(=O)c1c(NC(NC(=O)CF)C(Cl)(Cl)Cl)sc2c1CCCC2 (stereo not drawn),"inconclusive: 39.8 µM [inhibitor, single point]",
O=P(O)(O)COc1ccccc1O,"inconclusive: 50.1 µM [inhibitor, partial curve]",
CC/C(=N\Nc1ccccc1)c1c(O)n(-c2ccccc2)c(=O)[nH]c1=O,"inconclusive: 14.1 µM [inhibitor, partial curve, poor fit]",
Cc1cc(/C=C2\C(=O)NC(=O)N(c3ccc(Br)cc3)C2=O)c(C)n1-c1cc(C(=O)O)cc(C(=O)O)c1,,inactive: -5.13%
Cc1ccc(-c2nnc(Nc3ccc(O)cc3)c3ccccc23)cc1S(=O)(=O)N1CCOCC1,"inconclusive: 15.8 µM [inhibitor, partial curve]",
O=c1[nH]c(CN2CC=C(c3ccccc3)CC2)nc2scc(-c3cccs3)c12,"inconclusive: 35.5 µM [activator, partial curve]",
O=C(Cc1ccccc1)N1CCN(C2CCCC2)CC1,,inactive: 15.3%
Cn1cc(/C=C(\C(=O)O)C(C(=O)O)=C2CCCCC2)c2ccccc21,"inconclusive: 31.6 µM [inhibitor, partial curve]",
